Hit rate of the full screen: of about 310,000 compounds, about 14,000 (4.5%) showed an effect of 50% or more. The effect is printed as a negative number. The list shows a part of the results.
molecular target: human ether-à-go-go-related gene (hERG) potassium channel (human, UniProt Q12809); assay: primary screen, population patch clamp on CHO cells stably expressing hERG
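Note: peak tail current of the secondary pulse compared with the same well before compound.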

human ether-à-go-go-related gene (hERG) potassium channel, sequence (Q12809 whole entry, looked up): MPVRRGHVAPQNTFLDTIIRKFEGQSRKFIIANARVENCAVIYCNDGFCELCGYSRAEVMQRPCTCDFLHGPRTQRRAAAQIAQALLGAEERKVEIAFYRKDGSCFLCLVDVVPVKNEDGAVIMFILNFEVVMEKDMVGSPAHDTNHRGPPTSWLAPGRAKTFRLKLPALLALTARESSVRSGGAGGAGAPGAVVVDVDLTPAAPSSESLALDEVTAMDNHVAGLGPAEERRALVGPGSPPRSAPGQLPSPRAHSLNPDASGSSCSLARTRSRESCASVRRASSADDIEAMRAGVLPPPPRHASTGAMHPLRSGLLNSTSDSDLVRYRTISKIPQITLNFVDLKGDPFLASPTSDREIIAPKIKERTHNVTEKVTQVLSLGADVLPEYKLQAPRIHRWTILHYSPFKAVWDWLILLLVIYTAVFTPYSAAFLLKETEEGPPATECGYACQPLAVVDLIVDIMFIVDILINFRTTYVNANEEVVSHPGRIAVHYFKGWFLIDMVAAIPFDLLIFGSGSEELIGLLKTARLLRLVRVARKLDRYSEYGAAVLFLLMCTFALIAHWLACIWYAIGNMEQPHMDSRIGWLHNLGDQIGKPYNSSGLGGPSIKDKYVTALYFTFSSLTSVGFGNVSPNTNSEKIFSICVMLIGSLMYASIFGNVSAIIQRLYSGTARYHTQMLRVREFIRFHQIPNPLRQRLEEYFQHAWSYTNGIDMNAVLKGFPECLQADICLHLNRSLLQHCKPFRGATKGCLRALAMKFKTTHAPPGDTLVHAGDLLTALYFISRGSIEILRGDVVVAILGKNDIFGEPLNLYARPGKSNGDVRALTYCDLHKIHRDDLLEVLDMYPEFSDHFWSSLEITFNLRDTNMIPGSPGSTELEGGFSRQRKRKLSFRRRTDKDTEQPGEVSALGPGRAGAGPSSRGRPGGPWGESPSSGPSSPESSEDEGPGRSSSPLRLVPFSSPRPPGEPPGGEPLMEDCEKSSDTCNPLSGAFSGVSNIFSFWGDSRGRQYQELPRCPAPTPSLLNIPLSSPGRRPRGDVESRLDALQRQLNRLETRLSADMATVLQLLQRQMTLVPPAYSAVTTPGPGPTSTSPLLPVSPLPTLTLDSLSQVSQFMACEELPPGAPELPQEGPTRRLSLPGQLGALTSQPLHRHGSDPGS

First: CCc1ccc(N2C(=O)C3C4C=CC(CC4)C3C2=O)cc1 (stereo not drawn)
Second: CCc1ccc(CNc2ccc(O)cc2)cc1
The “hERG current change (%, negative = inhibition) at 10uM” value of the first is higher: 14.6% for the first, 6.04% for the second.

Going from `Cc1ccc2c(c1)nnn2C1CCN(S(=O)(=O)c2ccc(C(=O)NC3CCCC3)cc2)CC1` to `Cc1ccc(S(=O)(=O)Nc2nc3ccc(S(=O)(=O)N4CCCC4)cc3s2)cc1`, the “hERG current change (%, negative = inhibition) at 10uM” value falls from 15.9% to 14.6%.

Going from `COc1ccc(Cl)cc1N1C(=O)C2CCCN2C1c1cccc(F)c1` (stereo not drawn) to `COc1ccc(S(=O)(=O)N2CCN(Cc3ccc4c(c3)OCO4)CC2)cc1F`, the “hERG current change (%, negative = inhibition) at 10uM” value falls from -12.6% to -30.5%.

Going from `CCn1nnnc1SCC(=O)N1CCCc2ccccc21` to `O=C(c1ccc(Br)o1)N1CCc2ccccc21`, the “hERG current change (%, negative = inhibition) at 10uM” value rises from -3.75% to 0.669%.

Compared with `NC(=O)NC(Cc1ccccc1)C(=O)N1CCN(S(=O)(=O)c2ccc(Cl)cc2)CC1` (stereo not drawn), `CS(=O)(=O)N1CCN(C(=O)c2csc3ccccc23)CC1` is higher in “hERG current change (%, negative = inhibition) at 10uM” value: -5.91% for the first, 2.35% for the second.

Compared with `CCN(C(=O)Cc1ccc(NC2=NC3CS(=O)(=O)CC3S2)cc1)c1ccccc1` (stereo not drawn), `CCc1ccccc1OCC(=O)Nc1ccc2c(c1)OCCO2` is lower in “hERG current change (%, negative = inhibition) at 10uM” value: -2.27% for the first, -7.92% for the second.

Compared with `COc1ccc(NC(=O)c2ccccc2-c2ccccc2)c(C)c1`, `O=C(Nc1ccccc1F)c1ccccc1-c1ccc(C(F)(F)F)cc1` is lower in “hERG current change (%, negative = inhibition) at 10uM” value: -1.79% for the first, -5.12% for the second.

First: N/C(=N\OS(=O)(=O)c1cccc([N+](=O)[O-])c1)c1ccncc1
Second: c1ccc2c(c1)nc(-c1ccncc1)n1nnnc21
The “hERG current change (%, negative = inhibition) at 10uM” value of the first is higher: 3.59% for the first, -18.9% for the second.

Compared with `Fc1ccccc1CN1CCCCCCC1`, `Cc1ccc([N+](=O)[O-])c(OCCCN2CCCCCC2)c1.O=C(O)C(=O)O` is lower in “hERG current change (%, negative = inhibition) at 10uM” value: -25.9% for the first, -58.6% for the second.

Compared with `CCC(=Nc1ccccc1)C1=C(O)CCCC1=O`, `CC(C)(C)C(=O)NN=C1CCC(c2ccccc2)CC1` (stereo not drawn) is lower in “hERG current change (%, negative = inhibition) at 10uM” value: 17.7% for the first, 6.84% for the second.

Compared with `COC(=O)c1cc(Br)ccc1-c1ccc(/C=N/n2nnnc2N)o1`, `Oc1ccc(Br)cc1/C=N/N1CCN(Cc2cccc3ccccc23)CC1` is higher in “hERG current change (%, negative = inhibition) at 10uM” value: -12.7% for the first, -0.519% for the second.

Going from `CCOc1ccc(OCC)c(NC(=O)CN2CCN(c3ccc(C)cc3C)CC2)c1.Cl` to `CCOc1ccccc1Nc1cc(C)c2cccc(C)c2n1`, the “hERG current change (%, negative = inhibition) at 10uM” value rises from -0.937% to 23.1%.

First: O=C(NCC(c1ccco1)N1CCOCC1)c1cccc(Cl)c1 (stereo not drawn)
Second: O=C(Nc1ccc2c(c1)OCO2)c1ccc(CN2CCOCC2)cc1
The “hERG current change (%, negative = inhibition) at 10uM” value of the first is lower: 0.786% for the first, 10.1% for the second.

First: CCCc1cc(=O)oc2cc(O[C@@H]3O[C@H](CO)[C@@H](O)[C@H](O)[C@H]3O)ccc12
Second: COCCN1C(=O)C(O)=C(C(C)=O)C1c1ccc(F)cc1 (stereo not drawn)
The “hERG current change (%, negative = inhibition) at 10uM” value of the first is higher: 25.9% for the first, 0.257% for the second.

Going from `O=C1c2ccccc2C(=O)N1C(CO)C(O)c1ccc([N+](=O)[O-])cc1` (stereo not drawn) to `COc1cc(NC(=O)COC(=O)CSc2ccc3ccccc3c2)c(C)cc1[N+](=O)[O-]`, the “hERG current change (%, negative = inhibition) at 10uM” value falls from -5.29% to -8.94%.

Compared with `CN(CC(=O)Nc1ccc(F)cc1)CC(=O)Nc1ccc(Cl)c(S(=O)(=O)N2CCOCC2)c1`, `Cc1ccc(NC(=O)CN(c2ccc3c(c2)OCO3)S(=O)(=O)c2c(C)n[nH]c2C)cc1` is higher in “hERG current change (%, negative = inhibition) at 10uM” value: -49.1% for the first, 3.65% for the second.

Compared with `O=C(CCC(=O)N(CC(=O)NC1CCCC1)Cc1ccccc1Cl)Nc1nccs1`, `O=C(NC1CCCC1)C1CCC(=O)N1CCc1ccccc1` (stereo not drawn) is higher in “hERG current change (%, negative = inhibition) at 10uM” value: -16.1% for the first, 10.5% for the second.

First: C/C(=N\NC(=S)Nc1c(C)cccc1C)c1ccc(OC(F)F)cc1
Second: COc1ccc(N/C(C)=C/C(=S)Nc2ccccc2)cc1
The “hERG current change (%, negative = inhibition) at 10uM” value of the first is higher: 7.46% for the first, -8.63% for the second.

Compared with `Cc1ccc(-n2nc(C)c3c2OC(N)=C(C#N)C3c2ccncc2)cc1` (stereo not drawn), `CCc1nccn1-c1cc(C(C)(C)C)nc2c(-c3ccc(Cl)cc3)cnn12` is higher in “hERG current change (%, negative = inhibition) at 10uM” value: 7.07% for the first, 20.9% for the second.

Compared with `CCSCc1nnc(SCC(=O)Nc2cccc(C(C)=O)c2)n1C`, `O=C(CSCCO)Nc1cccc(C(F)(F)F)c1` is lower in “hERG current change (%, negative = inhibition) at 10uM” value: 11.9% for the first, -10% for the second.

First: CCCn1c(NC(=O)CCNC(=O)c2ccccc2Cl)nc2ccccc21
Second: CCn1c(CCNC(=O)c2cccs2)nnc1SCC(=O)Nc1nc(-c2ccccc2)cs1
The “hERG current change (%, negative = inhibition) at 10uM” value of the first is higher: -23.4% for the first, -52% for the second.

First: COC(=O)C1C(O)=C(C(C)=N)C(=O)CC1(C)C (stereo not drawn)
Second: CC1(CC(=O)O)SC(=O)NC1=O (stereo not drawn)
The “hERG current change (%, negative = inhibition) at 10uM” value of the first is higher: 22.9% for the first, -3.67% for the second.

Going from `COCC(=O)N/N=C\c1ccccc1OC/C=C/c1ccccc1` to `COc1cccc(/C=N/NC(=O)CCn2cnc3ccccc32)c1`, the “hERG current change (%, negative = inhibition) at 10uM” value falls from 4.57% to -0.349%.

Compared with `O=C(CCSc1ccc(Cl)cc1)N1CCN(c2ccc(O)cc2)CC1`, `Nc1nc(N2CCN(c3ccc(F)cc3)CC2)n[nH]1` is higher in “hERG current change (%, negative = inhibition) at 10uM” value: -23.8% for the first, 13.1% for the second.

Going from `CNCc1ccccc1Sc1cccc2ccccc12.O=C(O)/C=C\C(=O)O` to `O=C1CC(Nc2ccc3ccccc3c2)C(=O)N1Cc1ccccc1` (stereo not drawn), the “hERG current change (%, negative = inhibition) at 10uM” value rises from -45.4% to 16.9%.

First: Cl.O=S(=O)(NCCN1CCOCC1)c1cccs1
Second: O=C(CCCN1C(=O)/C(=C/c2ccccc2Cl)SC1=S)N1CCOCC1
The “hERG current change (%, negative = inhibition) at 10uM” value of the first is lower: -4.07% for the first, 6.21% for the second.

`CCOC(=O)c1cc(CC)sc1N1C(=O)CC(Sc2ccccc2C(=O)O)C1=O` (stereo not drawn) and `CCOc1ccc(N2C(=O)CC(N(CCc3ccc(OC)c(OC)c3)C(=O)/C=C/C(=O)O)C2=O)cc1` (stereo not drawn) are the same in “hERG current change (%, negative = inhibition) at 10uM” value: 11% for the first, 11% for the second.

Going from `COc1ccccc1C(O)Cc1nc2ccccc2n1C` (stereo not drawn) to `COc1ccccc1OCC(=O)NCc1n[nH]c(=O)c2ccccc12`, the “hERG current change (%, negative = inhibition) at 10uM” value rises from -1.56% to 2.92%.

Going from `CCCCn1c(=O)[nH]c(=O)c2c1nc(-c1ccccc1F)n2Cc1ccccc1OC` to `CCCCn1c(S(=O)(=O)O)nc2ccccc21`, the “hERG current change (%, negative = inhibition) at 10uM” value falls from 11.5% to 9.47%.

First: Cc1cccc(C)c1OCC(=O)NCC1CCCO1 (stereo not drawn)
Second: Cc1ccc(C)c(NC(=O)C2CC3CCC2C3)c1 (stereo not drawn)
The “hERG current change (%, negative = inhibition) at 10uM” value of the first is lower: 0.411% for the first, 12.6% for the second.

Compared with `COc1ccccc1NC(=O)c1ccc(C)c(S(=O)(=O)N2CCCCC2)c1`, `CC(Nc1cc(N2CCN(S(C)(=O)=O)CC2)ccc1[N+](=O)[O-])c1ccccc1` (stereo not drawn) is higher in “hERG current change (%, negative = inhibition) at 10uM” value: -8.22% for the first, -3.89% for the second.

Compared with `OCCC1CN(Cc2cccc3nccnc23)CCN1C1CCCC1` (stereo not drawn), `O=C(NCCc1ccc(Cl)cc1)C1CCN(c2cnccn2)CC1` is lower in “hERG current change (%, negative = inhibition) at 10uM” value: -4.4% for the first, -35.3% for the second.

Going from `CO[C@@]1(NC(=O)CSCC#N)C(=O)N2C(C(=O)[O-])=C(CSc3nnnn3C)CS[C@@H]21.[Na+]` to `COc1ccc(CCN2CC(C(=O)NCc3cnn(C(C)C)c3)CCC2=O)cc1` (stereo not drawn), the “hERG current change (%, negative = inhibition) at 10uM” value rises from 4.09% to 17%.

Going from `COc1ccc(N2CC(NC(=O)N(C)CCC#N)CC2=O)cc1` (stereo not drawn) to `COc1ccc(N(C(=O)c2ccco2)C(C(=O)NC2CCCC2)c2ccc(N(C)C)cc2)cc1` (stereo not drawn), the “hERG current change (%, negative = inhibition) at 10uM” value falls from 8.4% to 2.81%.

First: CCOc1ccc(C(O)(c2ccccc2)C(CN2CCCC2)c2ccccc2)cc1.Cl (stereo not drawn)
Second: c1ccc(-c2cnc(-c3ccccc3)nn2)cc1
The “hERG current change (%, negative = inhibition) at 10uM” value of the first is lower: -34% for the first, 11.7% for the second.

First: COc1ccc(OC)c(NC(=O)NCCCCc2ccccc2)c1
Second: COc1ccc(OC)c(NC(=S)NCc2cccnc2)c1
The “hERG current change (%, negative = inhibition) at 10uM” value of the first is lower: 4.33% for the first, 8.59% for the second.

Compared with `Cc1ccc(CN/C=C/C(=O)c2ccc(Br)cc2)cc1`, `Cc1ccc(S(=O)(=O)CC(=O)c2ccc(C(C)(C)C)cc2)cc1` is higher in “hERG current change (%, negative = inhibition) at 10uM” value: -8.5% for the first, 4.03% for the second.

First: C=CCNc1nnc(-c2ccncc2)s1
Second: OCC(O)/C=N/Nc1nc2ccccc2s1 (stereo not drawn)
The “hERG current change (%, negative = inhibition) at 10uM” value of the first is lower: -21.7% for the first, 14% for the second.

First: CCOc1ccc(-c2nnc(-c3ccco3)o2)cc1
Second: Cc1ccc2cccc(OCC(=O)N3CCc4ccccc43)c2n1
The “hERG current change (%, negative = inhibition) at 10uM” value of the first is lower: -3.92% for the first, 7.12% for the second.

Going from `CCCC1O[C@@H]2C[C@H]3[C@@H]4CCC5=CC(=O)C=C[C@]5(C)[C@H]4[C@@H](O)C[C@]3(C)[C@]2(C(=O)CO)O1` (stereo partly drawn) to `O=C(c1cnccn1)N(Cc1ccco1)C1(C(=O)NC2CCCCC2)CCCCC1`, the “hERG current change (%, negative = inhibition) at 10uM” value rises from -25.4% to -8.81%.

First: COc1ccc(CNC(=O)CN(C(=O)CCC(=O)Nc2ccccn2)c2cc(C)ccc2C)cc1
Second: COc1cccc(C(=O)NC(=O)Nc2cc(C)[nH]n2)c1
The “hERG current change (%, negative = inhibition) at 10uM” value of the first is lower: -20.2% for the first, 17.2% for the second.

Compared with `CCCCOc1ccc(C2C3CN(C(=O)OCC)CC=C3C(C#N)=C(N)C2(C#N)C#N)cc1OC` (stereo not drawn), `CC(C)CCn1c(=O)c2ccccc2n2c(=S)[nH]nc12` is higher in “hERG current change (%, negative = inhibition) at 10uM” value: 9.48% for the first, 18.2% for the second.

Compared with `O=C(CSc1nn(-c2ccccc2)c(=S)s1)Nc1ncccn1`, `Cc1ccccc1Nc1nc(-c2sc(NC(=O)c3cccc(Cl)c3)nc2C)cs1` is higher in “hERG current change (%, negative = inhibition) at 10uM” value: 13.4% for the first, 29.8% for the second.

First: CN1CCN(NC(=O)C23CC4CC(CC(C4)C2)C3)CC1.Cl
Second: O=C(Nc1cccc(Cl)c1)OCc1cncs1
The “hERG current change (%, negative = inhibition) at 10uM” value of the first is lower: -19.8% for the first, -2.42% for the second.

Compared with `CC(OC(=O)c1nc(Cl)ccc1Cl)C(=O)Nc1ccccc1F` (stereo not drawn), `CC(C)N(N=Nc1ccc([N+](=O)[O-])cc1)C(C)C` is lower in “hERG current change (%, negative = inhibition) at 10uM” value: 19.6% for the first, 8.18% for the second.

— article PMC4336329 (PLoS ONE, 2015)
